105 sequences from the supplement of paper PMC12067230 can be followed below.

Single values of this set are uncertain.
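Further: [psi-pin-] Saccharomyces cerevisiae expressing SupN fusions, induced by 100 µM Cu2SO4, selected 7 d at 30 °C without adenine and uracil, scored by deep sequencing of output versus input.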

A short description of the first data set: amyloid nucleation score relative to library mode (yeast Sup35 reporter selection) (log enrichment difference); higher = more amyloid nucleation; sequences are the first 22 residues of the Bri2 peptide extended by up to 12 random residues. Particulars: random library (experiment): 1;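 active = nucleation score significantly above 0 at FDR 0.05; inactive = not significantly above 0 or absent from output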.
For the sequence EASNCFAIRHFENKFAVETLICFSVQYSGTPGRG, the amyloid nucleation score came out at 6.62.

In the case of EASNCFAIRHFENKFAVETLICFSVRFSLSGMGT, the amyloid nucleation score turned out to be 2.19.

Sequence EASNCFAIRHFENKFAVETLICFSVWGAWRVWRA showed an amyloid nucleation score of 2.09.

EASNCFAIRHFENKFAVETLICFSWWECSYAMLA: the amyloid nucleation score entry is “inactive”.

EASNCFAIRHFENKFAVETLICFSY: the amyloid nucleation score turned out to be 3.34.

In turn, EASNCFAIRHFENKFAVETLICFT registered an amyloid nucleation score of 4.24.

Sequence EASNCFAIRHFENKFAVETLICFTCVAGMHCGCR showed an amyloid nucleation score of 3.05.

On to EASNCFAIRHFENKFAVETLICFTDCYHALIRP, for which the amyloid nucleation score result was “inactive”.

Consider EASNCFAIRHFENKFAVETLICFTDNDEM, for which the amyloid nucleation score entry was “inactive”.

EASNCFAIRHFENKFAVETLICFTEH: the amyloid nucleation score is 2.45.

For EASNCFAIRHFENKFAVETLICFTER, the amyloid nucleation score result was “inactive”.

Regarding EASNCFAIRHFENKFAVETLICFTF, the amyloid nucleation score was 6.7.

On to EASNCFAIRHFENKFAVETLICFTG, for which the amyloid nucleation score entry is “inactive”.

EASNCFAIRHFENKFAVETLICFTGCCC gave an amyloid nucleation score of 5.72.

As to EASNCFAIRHFENKFAVETLICFTKRGCQHRSHS, the amyloid nucleation score entry was “inactive”.

EASNCFAIRHFENKFAVETLICFTLTCGVSCMTG: the amyloid nucleation score was -0.179.

With EASNCFAIRHFENKFAVETLICFTNGERGKECLT, the amyloid nucleation score result is “inactive”.

For EASNCFAIRHFENKFAVETLICFTSSSMRSRL, the amyloid nucleation score came out at 4.2.

As for EASNCFAIRHFENKFAVETLICFTVSEGAWSVRP, the amyloid nucleation score amounted to 1.78.

For the sequence EASNCFAIRHFENKFAVETLICFTVVVRERGPRN, the amyloid nucleation score turned out to be 3.88.

Turning to EASNCFAIRHFENKFAVETLICFV, the amyloid nucleation score stood at 2.66.

Regarding EASNCFAIRHFENKFAVETLICFVCGIMYSSVIA, the amyloid nucleation score result is “inactive”.

Turning to EASNCFAIRHFENKFAVETLICFVCGSVCIVGIG, the amyloid nucleation score entry was “inactive”.

In turn, EASNCFAIRHFENKFAVETLICFVCP returned an amyloid nucleation score of 7.43.

In the case of EASNCFAIRHFENKFAVETLICFVDA, the amyloid nucleation score was 1.52.

Take EASNCFAIRHFENKFAVETLICFVDR: the amyloid nucleation score turned out to be 4.96.

Sequence EASNCFAIRHFENKFAVETLICFVFE displayed an amyloid nucleation score of 7.67.

Take EASNCFAIRHFENKFAVETLICFVFVLMKLSPGL: the amyloid nucleation score was -0.187.

As to EASNCFAIRHFENKFAVETLICFVGENRGVEQEE, the amyloid nucleation score came to 3.95.

Sequence EASNCFAIRHFENKFAVETLICFVGGGSRVPLGK gave an amyloid nucleation score of 2.4.

On to EASNCFAIRHFENKFAVETLICFVKSSETGVMGC, for which the amyloid nucleation score result was “inactive”.

Regarding EASNCFAIRHFENKFAVETLICFVLFSRLLGRLQ, the amyloid nucleation score entry is “inactive”.

As for EASNCFAIRHFENKFAVETLICFVLLCITKLRSW, the amyloid nucleation score entry was “inactive”.

For EASNCFAIRHFENKFAVETLICFVLLRLMNRAPN, the amyloid nucleation score entry was “inactive”.

The data set is the same for the next values; noted with them: random library (experiment): 2.
EASNCFAIRHFENKFAVETLICFSVTDVMSRSLV had an amyloid nucleation score of 2.49.

In the case of EASNCFAIRHFENKFAVETLICFSWEATVCHVSV, the amyloid nucleation score amounted to 4.61.

Turning to EASNCFAIRHFENKFAVETLICFSWFLYMGDAVN, the amyloid nucleation score came out at 4.96.

EASNCFAIRHFENKFAVETLICFSWS: the amyloid nucleation score is 8.47.

EASNCFAIRHFENKFAVETLICFSYCSGISANAG returned an amyloid nucleation score of 6.29.

Consider EASNCFAIRHFENKFAVETLICFSYLLSRDGSFV, for which the amyloid nucleation score entry is “inactive”.

EASNCFAIRHFENKFAVETLICFSYNNSTSRCSD gave an amyloid nucleation score of 6.88.

In the case of EASNCFAIRHFENKFAVETLICFSYSSVNTLYST, the amyloid nucleation score is 5.35.

As to EASNCFAIRHFENKFAVETLICFTCCLR, the amyloid nucleation score worked out at 7.83.

For EASNCFAIRHFENKFAVETLICFTFDRPYLGVVV, the amyloid nucleation score result is “inactive”.

For EASNCFAIRHFENKFAVETLICFTFFFYLMRDGK, the amyloid nucleation score result is “inactive”.

As for EASNCFAIRHFENKFAVETLICFTFFGALLERSA, the amyloid nucleation score result is “inactive”.

The sequence EASNCFAIRHFENKFAVETLICFTHSRTI registered an amyloid nucleation score of 2.18.

On to EASNCFAIRHFENKFAVETLICFTLSSDYFWSEV, for which the amyloid nucleation score was 3.45.

Turning to EASNCFAIRHFENKFAVETLICFTNPLLLREGVR, the amyloid nucleation score entry is “inactive”.

EASNCFAIRHFENKFAVETLICFTNRHYDHPHIL: the amyloid nucleation score was found to be 3.64.

Regarding EASNCFAIRHFENKFAVETLICFTPLYERVYVVR, the amyloid nucleation score entry was “inactive”.

Take EASNCFAIRHFENKFAVETLICFTQLVG: the amyloid nucleation score entry was “inactive”.

Regarding EASNCFAIRHFENKFAVETLICFTRSMFLSFTN, the amyloid nucleation score result is “inactive”.

The sequence EASNCFAIRHFENKFAVETLICFTSDSRCLKDWR had an amyloid nucleation score of 4.79.

Regarding EASNCFAIRHFENKFAVETLICFTSHLNNARHGL, the amyloid nucleation score came out at 3.87.

The sequence EASNCFAIRHFENKFAVETLICFTSIISVDSCRS returned an amyloid nucleation score of 1.25.

Consider EASNCFAIRHFENKFAVETLICFTSLFLVRYI, for which the amyloid nucleation score entry is “inactive”.

EASNCFAIRHFENKFAVETLICFTTSRASFDETS had an amyloid nucleation score of 1.64.

Consider EASNCFAIRHFENKFAVETLICFTTSSYYWSLQV, for which the amyloid nucleation score result is “inactive”.

In turn, EASNCFAIRHFENKFAVETLICFTVC registered an amyloid nucleation score of 5.2.

In turn, EASNCFAIRHFENKFAVETLICFTVLCGSDSSVL showed an amyloid nucleation score of 7.73.

In the case of EASNCFAIRHFENKFAVETLICFTWCIQHTLMKC, the amyloid nucleation score result was “inactive”.

EASNCFAIRHFENKFAVETLICFTYACRFNIYPF yielded an amyloid nucleation score of 3.67.

Sequence EASNCFAIRHFENKFAVETLICFVCFVCWCSVCF registered an amyloid nucleation score of -0.0149.

EASNCFAIRHFENKFAVETLICFVCGCMRRGALP gave an amyloid nucleation score of 4.58.

Regarding EASNCFAIRHFENKFAVETLICFVDSSWLVAMSI, the amyloid nucleation score result was “inactive”.

Regarding EASNCFAIRHFENKFAVETLICFVEFERDQHSVH, the amyloid nucleation score is 4.26.

As for EASNCFAIRHFENKFAVETLICFVEIYSWYRHSA, the amyloid nucleation score result was “inactive”.

On to EASNCFAIRHFENKFAVETLICFVGNWRVRVKGV, for which the amyloid nucleation score entry was “inactive”.

In the case of EASNCFAIRHFENKFAVETLICFVGWTSFDSVHP, the amyloid nucleation score entry is “inactive”.

With EASNCFAIRHFENKFAVETLICFVHFIKWCGF, the amyloid nucleation score entry is “inactive”.

With EASNCFAIRHFENKFAVETLICFVIDNIWLSSVR, the amyloid nucleation score entry was “inactive”.

For the sequence EASNCFAIRHFENKFAVETLICFVILNMRFVWYV, the amyloid nucleation score result is “inactive”.

For EASNCFAIRHFENKFAVETLICFVIYFGESQSMG, the amyloid nucleation score came to 3.33.

On to EASNCFAIRHFENKFAVETLICFVLCL, for which the amyloid nucleation score came out at 5.59.

For the sequence EASNCFAIRHFENKFAVETLICFVLFIWDTSWPR, the amyloid nucleation score result is “inactive”.

EASNCFAIRHFENKFAVETLICFVLICNI yielded an amyloid nucleation score of 4.24.

Still in this data set, the particulars now being: random library (experiment): 3.
As for EASNCFAIRHFENKFAVETLICFSVRPPASLVGE, the amyloid nucleation score result was “inactive”.

On to EASNCFAIRHFENKFAVETLICFSVTNKIIEGIT, for which the amyloid nucleation score result was “inactive”.

On to EASNCFAIRHFENKFAVETLICFSYCLILWVTES, for which the amyloid nucleation score is 1.28.

As to EASNCFAIRHFENKFAVETLICFSYSRVDKLKEY, the amyloid nucleation score is 0.261.

Regarding EASNCFAIRHFENKFAVETLICFTAARSLVGSRA, the amyloid nucleation score entry was “inactive”.

On to EASNCFAIRHFENKFAVETLICFTAFFETYWMWR, for which the amyloid nucleation score entry was “inactive”.

Regarding EASNCFAIRHFENKFAVETLICFTFRPWEPRCGS, the amyloid nucleation score turned out to be 5.02.

As for EASNCFAIRHFENKFAVETLICFTGGVRSLCVDC, the amyloid nucleation score is 4.08.

Regarding EASNCFAIRHFENKFAVETLICFTGIQ, the amyloid nucleation score entry is “inactive”.

Turning to EASNCFAIRHFENKFAVETLICFTLGQHRFRSTV, the amyloid nucleation score result was “inactive”.

With EASNCFAIRHFENKFAVETLICFTLTLFGVHISY, the amyloid nucleation score result was “inactive”.

With EASNCFAIRHFENKFAVETLICFTMFVYLGVHGC, the amyloid nucleation score result is “inactive”.

EASNCFAIRHFENKFAVETLICFTRAQTSSRGGS showed an amyloid nucleation score of 2.36.

As to EASNCFAIRHFENKFAVETLICFTRTPLLRFYW, the amyloid nucleation score result was “inactive”.

As to EASNCFAIRHFENKFAVETLICFTSLETNVHTRD, the amyloid nucleation score result was “inactive”.

With EASNCFAIRHFENKFAVETLICFTVMLCTVVTCR, the amyloid nucleation score result was “inactive”.

Regarding EASNCFAIRHFENKFAVETLICFTVRRVCFRTYL, the amyloid nucleation score entry is “inactive”.

EASNCFAIRHFENKFAVETLICFTWLPCRRPCFM gave an amyloid nucleation score of 1.94.

Take EASNCFAIRHFENKFAVETLICFVARATTKYTST: the amyloid nucleation score worked out at 2.97.

For the sequence EASNCFAIRHFENKFAVETLICFVAVRKACCA, the amyloid nucleation score entry was “inactive”.

With EASNCFAIRHFENKFAVETLICFVC, the amyloid nucleation score is 4.66.

With EASNCFAIRHFENKFAVETLICFVDSLPHVHASF, the amyloid nucleation score result is “inactive”.

In turn, EASNCFAIRHFENKFAVETLICFVFGDRAHVVEE yielded an amyloid nucleation score of 8.01.

Turning to EASNCFAIRHFENKFAVETLICFVHHFIG, the amyloid nucleation score result is “inactive”.

The sequence EASNCFAIRHFENKFAVETLICFVHRPCFRSVVS registered an amyloid nucleation score of 3.74.

In turn, EASNCFAIRHFENKFAVETLICFVIDP yielded an amyloid nucleation score of 6.06.

Consider EASNCFAIRHFENKFAVETLICFVIFLLCMLMPM, for which the amyloid nucleation score entry was “inactive”.

As for EASNCFAIRHFENKFAVETLICFVIPVLDSRQ, the amyloid nucleation score was determined as 8.24.
